For the experiment, the system named is A2780V-CSC cells. The conditions noted are these: read-out: metabolic activity IC50, A2780V-CSC; 72 h incubation; mean ± SD of two or three independent experiments.

Among the data in PMC10291549, “Reaction Behavior of [1,3-Diethyl-4,5-diphenyl-1H-imidazol-2-ylidene] Containing Gold(I/III) Complexes against Ingredients of the Cell Culture Medium and the Meaning on the Potential Use for Cancer Eradication Therapy” (Journal of Medicinal Chemistry, 2023) are IC50 values, retold here.

On to “Iodido[1,3-diethyl-4,5-diphenyl-1H-imidazol-2-ylidene]gold(I) [Complex 7]”, for which the half-maximal inhibitory concentration (IC50) came out at 1650 ± 1230 nM. For “Bis[1,3-diethyl-4,5-diphenyl-1H-imidazol-2-ylidene]diiodidogold(III) Hexafluorophosphate [Complex 11]”, the IC50 was determined as 1070 ± 210 nM. Under “Chlorido[1,3-diethyl-4,5-diphenyl-1H-imidazol-2-ylidene]gold(I) [Complex 5]” stands 9710 ± 1200 nM. Consider `CCn1c(-c2ccccc2)c(-c2ccccc2)n(CC)[c]1=[Au+]([Br])([Br])=[c]1n(CC)c(-c2ccccc2)c(-c2ccccc2)n1CC.F[P-](F)(F)(F)(F)F` [Complex 10, Bis[1,3-diethyl-4,5-diphenyl-1H-imidazol-2-ylidene]dibromidogold(III) Hexafluorophosphate], for which the IC50 was found to be 760 ± 130 nM. For the molecule “Bromido[1,3-diethyl-4,5-diphenyl-1H-imidazol-2-ylidene]gold(I) [Complex 6]”, the IC50 is 8280 ± 740 nM.

For the molecule `CCn1c(-c2ccccc2)c(-c2ccccc2)n(CC)[c]1=[Au+]([Cl])([Cl])=[c]1n(CC)c(-c2ccccc2)c(-c2ccccc2)n1CC.F[P-](F)(F)(F)(F)F` [Complex 9, Bis[1,3-diethyl-4,5-diphenyl-1H-imidazol-2-yliden]dichloridogold(III) Hexafluorophosphate], the IC50 was 630 ± 60 nM.

The term IC50 denotes the concentration that inhibits the measured activity by half.
